The source of these data is article PMC11629677.

Protein sequences, listed by entry. Tags and fused reporters are not part of them.
UniProt Q86U44: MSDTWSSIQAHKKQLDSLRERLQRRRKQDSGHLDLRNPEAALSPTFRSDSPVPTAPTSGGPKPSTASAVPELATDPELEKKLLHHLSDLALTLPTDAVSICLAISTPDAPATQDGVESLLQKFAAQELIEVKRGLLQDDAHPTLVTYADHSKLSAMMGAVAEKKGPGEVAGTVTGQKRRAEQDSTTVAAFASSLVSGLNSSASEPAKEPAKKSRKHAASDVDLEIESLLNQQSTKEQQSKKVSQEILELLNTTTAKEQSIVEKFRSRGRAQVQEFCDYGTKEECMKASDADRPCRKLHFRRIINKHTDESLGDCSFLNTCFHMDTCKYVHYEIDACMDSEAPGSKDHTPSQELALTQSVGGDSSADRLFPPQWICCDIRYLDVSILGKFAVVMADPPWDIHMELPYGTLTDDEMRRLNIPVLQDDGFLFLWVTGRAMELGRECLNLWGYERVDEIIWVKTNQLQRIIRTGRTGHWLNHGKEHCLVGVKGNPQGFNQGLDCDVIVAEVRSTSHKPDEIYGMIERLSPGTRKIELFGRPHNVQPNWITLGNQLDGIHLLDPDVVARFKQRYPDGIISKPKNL
UniProt P38919: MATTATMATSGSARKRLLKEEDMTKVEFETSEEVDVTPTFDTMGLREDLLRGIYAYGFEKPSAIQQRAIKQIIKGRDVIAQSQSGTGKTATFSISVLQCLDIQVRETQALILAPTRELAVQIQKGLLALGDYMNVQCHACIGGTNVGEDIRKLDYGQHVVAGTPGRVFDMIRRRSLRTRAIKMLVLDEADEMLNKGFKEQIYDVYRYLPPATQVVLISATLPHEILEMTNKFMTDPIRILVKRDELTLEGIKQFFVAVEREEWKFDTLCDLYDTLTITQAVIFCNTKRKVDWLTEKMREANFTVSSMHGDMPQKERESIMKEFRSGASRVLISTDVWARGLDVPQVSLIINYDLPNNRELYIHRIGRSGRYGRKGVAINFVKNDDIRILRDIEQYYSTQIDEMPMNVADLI
UniProt P08621: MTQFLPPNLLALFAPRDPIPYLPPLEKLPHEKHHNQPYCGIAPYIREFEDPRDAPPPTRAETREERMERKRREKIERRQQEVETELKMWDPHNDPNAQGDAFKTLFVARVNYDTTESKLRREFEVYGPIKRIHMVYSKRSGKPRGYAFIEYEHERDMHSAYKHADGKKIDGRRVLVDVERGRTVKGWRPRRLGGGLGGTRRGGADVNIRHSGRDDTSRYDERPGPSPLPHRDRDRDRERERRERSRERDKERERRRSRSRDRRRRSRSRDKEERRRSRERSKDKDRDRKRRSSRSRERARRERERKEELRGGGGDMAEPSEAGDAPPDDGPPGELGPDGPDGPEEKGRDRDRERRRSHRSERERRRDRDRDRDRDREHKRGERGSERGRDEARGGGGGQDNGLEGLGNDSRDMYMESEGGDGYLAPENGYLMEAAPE

In test [1] the target is T1, FLAG-ZFC3H1 (1-1,233) (human) (UniProt O60293).
T1 sequence: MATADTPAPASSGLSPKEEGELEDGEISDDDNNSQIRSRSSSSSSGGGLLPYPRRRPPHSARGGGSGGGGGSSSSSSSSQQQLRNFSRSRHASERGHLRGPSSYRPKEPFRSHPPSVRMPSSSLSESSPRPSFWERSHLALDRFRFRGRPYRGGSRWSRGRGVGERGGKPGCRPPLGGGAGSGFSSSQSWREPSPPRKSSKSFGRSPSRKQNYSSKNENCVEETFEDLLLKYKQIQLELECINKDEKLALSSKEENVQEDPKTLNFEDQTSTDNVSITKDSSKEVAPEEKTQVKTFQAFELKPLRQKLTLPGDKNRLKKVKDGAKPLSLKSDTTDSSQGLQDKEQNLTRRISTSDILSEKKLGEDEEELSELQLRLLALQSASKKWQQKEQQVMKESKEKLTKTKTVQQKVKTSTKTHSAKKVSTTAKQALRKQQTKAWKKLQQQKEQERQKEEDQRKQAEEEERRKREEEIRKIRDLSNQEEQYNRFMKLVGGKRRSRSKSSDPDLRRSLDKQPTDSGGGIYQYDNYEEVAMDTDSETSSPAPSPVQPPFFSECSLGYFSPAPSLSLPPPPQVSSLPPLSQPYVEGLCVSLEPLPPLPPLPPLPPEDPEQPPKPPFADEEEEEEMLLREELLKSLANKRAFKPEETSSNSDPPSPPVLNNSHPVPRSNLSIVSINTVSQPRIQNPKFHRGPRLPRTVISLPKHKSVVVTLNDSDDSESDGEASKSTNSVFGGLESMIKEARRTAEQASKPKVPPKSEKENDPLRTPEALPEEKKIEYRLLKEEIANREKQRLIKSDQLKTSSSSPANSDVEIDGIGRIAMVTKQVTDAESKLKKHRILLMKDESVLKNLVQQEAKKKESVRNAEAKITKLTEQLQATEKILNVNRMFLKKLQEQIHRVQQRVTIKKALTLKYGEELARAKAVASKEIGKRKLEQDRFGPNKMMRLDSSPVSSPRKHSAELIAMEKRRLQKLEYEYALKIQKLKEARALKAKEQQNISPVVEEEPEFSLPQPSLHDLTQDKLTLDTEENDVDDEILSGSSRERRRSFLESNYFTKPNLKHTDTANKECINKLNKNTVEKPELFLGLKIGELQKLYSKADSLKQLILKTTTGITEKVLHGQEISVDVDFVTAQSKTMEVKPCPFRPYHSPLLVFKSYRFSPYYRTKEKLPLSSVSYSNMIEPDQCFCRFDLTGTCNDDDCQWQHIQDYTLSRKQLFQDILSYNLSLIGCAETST
The test can be described thus: co-IP; FLAG-tagged bait expressed in HEK293 cells, lysate (20 mM Tris-HCl pH 8, 137 mM NaCl, 1% NP-40, 2 mM EDTA) on FLAG M2 beads, 3 h or overnight at 4°C; washes with 300 mM NaCl; precipitates treated with buffer or RNase A/T1 and reisolated; immunoblot for endogenous proteins. In general terms: A western blot detects proteins with antibodies after separation by electrophoresis.

A further test deals with FLAG-ZFC3H1-HA (human) (UniProt O60293). The description is as above.

These are yes or no findings as the source states them, for the method shown. Binding seen in cells or lysates may run through a third protein. Some entries that bind do so weakly or less than the wild type. For some assays here: Sequences can lack the tags named with a protein.

Regarding “METTL3 (endogenous) (from UniProt Q86U44 1-580)”, the binding entry in test [1] was “no binding”.

Turning to “eIF4AIII (endogenous) (from UniProt P38919 1-411)”, the binding result (in test [1]; with FLAG-ZFC3H1-HA (human)) was “no binding” each time.

For the molecule “U1-70K (endogenous) (from UniProt P08621 1-437)”, the binding result (in test [1]; in the test with FLAG-ZFC3H1-HA (human)) was “binds” throughout.

B1: YTHDC2 (endogenous) (protein, UniProt Q9H6S0 1-1430)
chain: MSRPSSVSPRQPAPGGGGGGGPSPCGPGGGGRAKGLKDIRIDEEVKIAVNIALERFRYGDQREMEFPSSLTSTERAFIHRLSQSLGLVSKSKGKGANRYLTVKKKDGSETAHAMMTCNLTHNTKHAVRSLIQRFPVTNKERTELLPKTERGNVFAVEAENREMSKTSGRLNNGIPQIPVKRGESEFDSFRQSLPVFEKQEEIVKIIKENKVVLIVGETGSGKTTQIPQFLLDDCFKNGIPCRIFCTQPRRLAAIAVAERVAAERRERIGQTIGYQIRLESRVSPKTLLTFCTNGVLLRTLMAGDSTLSTVTHVIVDEVHERDRFSDFLLTKLRDLLQKHPTLKLILSSAALDVNLFIRYFGSCPVIYIQGRPFEVKEMFLEDILRTTGYTNKEMLKYKKEKQQEEKQQTTLTEWYSAQENSFKPESQRQRTVLNVTDEYDLLDDGGDAVFSQLTEKDVNCLEPWLIKEMDACLSDIWLHKDIDAFAQVFHLILTENVSVDYRHSETSATALMVAAGRGFASQVEQLISMGANVHSKASNGWMALDWAKHFGQTEIVDLLESYSATLEFGNLDESSLVQTNGSDLSAEDRELLKAYHHSFDDEKVDLDLIMHLLYNICHSCDAGAVLIFLPGYDEIVGLRDRILFDDKRFADSTHRYQVFMLHSNMQTSDQKKVLKNPPAGVRKIILSTNIAETSITVNDVVFVIDSGKVKEKSFDALNFVTMLKMVWISKASAIQRKGRAGRCRPGICFRLFSRLRFQNMLEFQTPELLRMPLQELCLHTKLLAPVNCPIADFLMKAPEPPPALIVRNAVQMLKTIDAMDTWEDLTELGYHLADLPVEPHLGKMVLCAVVLKCLDPILTIACTLAYRDPFVLPTQASQKRAAMLCRKRFTAGAFSDHMALLRAFQAWQKARSDGWERAFCEKNFLSQATMEIIIGMRTQLLGQLRASGFVRARGGGDIRDVNTNSENWAVVKAALVAGMYPNLVHVDRENLVLTGPKEKKVRFHPASVLSQPQYKKIPPANGQAAAIKALPTDWLIYDEMTRAHRIANIRCCSAVTPVTILVFCGPARLASNALQEPSSFRVDGIPNDSSDSEMEDKTTANLAALKLDEWLHFTLEPEAASLLLQLRQKWHSLFLRRMRAPSKPWSQVDEATIRAIIAVLSTEEQSAGLQQPSGIGQRPRPMSSEELPLASSWRSNNSRKSSADTEFSDECTTAERVLMKSPSPALHPPQKYKDRGILHPKRGTEDRSDQSSLKSTDSSSYPSPCASPSPPSSGKGSKSPSPRPNMPVRYFIMKSSNLRNLEISQQKGIWSTTPSNERKLNRAFWESSIVYLVFSVQGSGHFQGFSRMSSEIGREKSQDWGSAGLGGVFKVEWIRKESLPFQFAHHLLNPWNDNKKVQISRDGQELEPLVGEQLLQLWERLPLGEKNTTD
In the case of B1, the binding entry (in test [1]; with FLAG-ZFC3H1-HA (human)) was “binds” in each case.

B2: G3BP2 (endogenous) (protein, UniProt Q9UN86 1-482)
chain: MVMEKPSPLLVGREFVRQYYTLLNKAPEYLHRFYGRNSSYVHGGVDASGKPQEAVYGQNDIHHKVLSLNFSECHTKIRHVDAHATLSDGVVVQVMGLLSNSGQPERKFMQTFVLAPEGSVPNKFYVHNDMFRYEDEVFGDSEPELDEESEDEVEEEQEERQPSPEPVQENANSGYYEAHPVTNGIEEPLEESSHEPEPEPESETKTEELKPQVEEKNLEELEEKSTTPPPAEPVSLPQEPPKAFSWASVTSKNLPPSGTVSSSGIPPHVKAPVSQPRVEAKPEVQSQPPRVREQRPRERPGFPPRGPRPGRGDMEQNDSDNRRIIRYPDSHQLFVGNLPHDIDENELKEFFMSFGNVVELRINTKGVGGKLPNFGFVVFDDSEPVQRILIAKPIMFRGEVRLNVEEKKTRAARERETRGGGDDRRDIRRNDRGPGGPRGIVGGGMMRDRDGRGPPPRGGMAQKLGSGRGTGQMEGRFTGQRR
With B2, the binding result in the test with FLAG-ZFC3H1-HA (human) is “no binding”.
